{
  "source": "paper PMC12136788",
  "binders": {"B1": {"name": "chr7:28421298:28421299:+_ENSMUSG00000004056_ENSMUST00000051356|mus_mus|FALSE|FALSE (ssRNA)", "RNA": "GGGAGUUCUACAGUCCGACGAUCCAUCAUCUCAUACAUGACCACACCCAGCCCCCACCAGUCCACUGCUCGCCCAUAGUCAUUGUCCUCUAGCACCUCAGGCGCCAAGUACUCCGGGGUACCACAGAAGGUUUUCAUGGUGGCCAACAGAGGAUUGAGCAUCA"}, "B2": {"name": "chr4:144460044:144460045:+_ENSG00000153147_ENST00000283131|hu_mus|hu_hu_hu_mus_False|58_78 (ssRNA)", "RNA": "GGGAGUUCUACAGUCCGACGAUCACGGUCCAUAGCCUGAAGAUCAACUUGCGGAUUCCAAUCAGAAUCAUAUAAAAUUACUACAUCAGCAGUUGCAAGAUUGAUGCCCAGACCACCAGCACGUGUGCUUAGCAUAAAUACAAACAACAGAGGAUUGAGCAUCA"}, "B3": {"name": "chr7:102944291:102944292:+_ENSG00000105819_ENST00000453466|hu_mus|motif|central (ssRNA)", "RNA": "GGGAGUUCUACAGUCCGACGAUCCUCAAUCUCUGCUUCUCCCAGUGUGCUGUUCUGAAUUAUGUCAGCAAGAAUUUCGGCAGCUCUGGGCAAAUCUCUCGAGAAUGCUUUGGCGUAGUAGACAGUCUGCUCUCUGGAGGUAUACAACAGAGGAUUGAGCAUCA"}, "B4": {"name": "chr1:66480114:66480115:+_ENSMUSG00000015222_ENSMUST00000024639|mus_hu|mus_mus_mus_hu_True|28_108 (ssRNA)", "RNA": "GGGAGUUCUACAGUCCGACGAUCUGGCCUGUGACGGAUGUUCUUCAGAGAGCCACAUUUGGAUGUCACAUGGCUUAGGUCUAUUUUCUUGGUAACAAUUUGUACCUGACCCCCCUUAGGCUGGUAUUUGAUGUUGUCUGUUGACAACAGAGGAUUGAGCAUCA"}, "B5": {"name": "chr1:163138135:163138136:-_ENSG00000143248_ENST00000313961|hu_hu|FALSE|FALSE (ssRNA)", "RNA": "GGGAGUUCUACAGUCCGACGAUCAUUGUACGGAAUGACAAGGUCACCAACUGAGUCUGGCUUCUGGAGGAGAAUUCCCAACUUGAUCUUAAUCUCCUUGGCCCUUUCCAGGCAUGAGUGGGGCAAAGCUGCAAGUCCUUUGCACAACAGAGGAUUGAGCAUCA"}, "B6": {"name": "chrX:98862621:98862622:+_ENSMUSG00000034160_ENSMUST00000044475|mus_hu|mus_mus_mus_hu_False|8_28 (ssRNA)", "RNA": "GGGAGUUCUACAGUCCGACGAUCCUGCAUCUCCUUUAGAGUGUUUCCCAUAUUAGAGUAGGCAUCAGCAAAGGUAGGACUGAUUCGAAUAGCCUCCUUAUAAUGCAUCAGUGCUUCCUGCAGUUUUCCCUGCUGUUGCAGUACCAACAGAGGAUUGAGCAUCA"}, "B7": {"name": "chr18:60570258:60570259:+_ENSG00000081913_ENST00000262719|hu_mus|FALSE|FALSE (ssRNA)", "RNA": "GGGAGUUCUACAGUCCGACGAUCCUUAUUGUCUCGCAGGUCAAGCUGAGUGACAUGUUGCACAAAGUCCACCUCAUCUGCCAUAAGCUUUCUGAGUAUGUUCAGUCUUAGGUCCACAUGUUUAAUAUGAGGCAUUCUUCUUAACAACAGAGGAUUGAGCAUCA"}, "B8": {"name": "57924663_57924783_1331_CDS_ENSMUSG00000003226_ENSMUST00000003310|mouse|control|control (ssRNA)", "RNA": "GGGAGUUCUACAGUCCGACGAUCUCUAGCCAAGUCAUCAGGGUCUGGCACUUGUCCAUCAAGGUUUCCAAUAUCAUCAUUCCCAAGAAAGGAUCUCUCCUUGGAUGACUGACUGGAAAACAGAGCAUCACAGAGAGCAGACUGCAACAGAGGAUUGAGCAUCA"}, "B9": {"name": "chrX:53596632:53596633:-_ENSG00000086758_ENST00000262854|hu_hu|FALSE|FALSE (ssRNA)", "RNA": "GGGAGUUCUACAGUCCGACGAUCGGCAUGUUUCUCUGUACUCUCAGCCAUAGCCAGUGCCCGUCCAAGGGCUGCUUUUACUUCAUUCACUAGGGCCACCUGGGCAUCUGUGCCACUCCCUGCAGCAGCCAGGCUUGCGAGGAACAACAGAGGAUUGAGCAUCA"}, "B10": {"name": "106939881_106942074_2604_CDS_ENSMUSG00000040481_ENSMUST00000057892|mouse|control|control (ssRNA)", "RNA": "GGGAGUUCUACAGUCCGACGAUCUGUCUCCUCCUCCUCUUGUUUUUUCUCCUUUUUUUUAACUUUCUCUUUUUCUUCCCUUUCAAUUGAUGUCAUCCUAUGUAACCGGGUAUGUCCUAGAGACUCCCGCCAUAUUGGCAGCAUCAACAGAGGAUUGAGCAUCA"}, "B11": {"name": "91870445_91871446_617_CDS_ENSG00000001631_ENST00000394505|human|control|control (ssRNA)", "RNA": "GGGAGUUCUACAGUCCGACGAUCGGGAACUUCAUGCAACAAAAUUUCAUAUGACUUAGCUCUGUAUUCCCGAGAAUUGAGACUGGCAGUAUUCUUUGGACGAAUAACAGCAACAUAUGCAUCUUCUAUGUUUUCUGGAUUUCCCAACAGAGGAUUGAGCAUCA"}, "B12": {"name": "chr6:90346886:90346887:-_ENSG00000083099_ENST00000520318|hu_hu|motif|central (ssRNA)", "RNA": "GGGAGUUCUACAGUCCGACGAUCCAGGGUAUGUUUUUCAGUGUUAAGGCAACUGUUCUGAUGUGUUUUUCCUUUGCUCUCGGUCACCAAAUACUGUACAUAUAAAUAGUAAGACUGGGCUUUGUGUUGUCCAUUGUUAAUCCUCAACAGAGGAUUGAGCAUCA"}, "B13": {"name": "chr20:9438074:9438075:+_ENSG00000101333_ENST00000334005|hu_hu|FALSE|FALSE (ssRNA)", "RNA": "GGGAGUUCUACAGUCCGACGAUCUUUGUGAUCUGAUGUCAGCGUCUGAAUUUUGAUUUCUGUUUCUUUUUUCAUUUCGAGACAAUUACUUCCCCCCUUCUUCUUCAUUGCCUUCUCUAGGAUUUUCUCAUGAGUCGACUUCUCCAACAGAGGAUUGAGCAUCA"}, "B14": {"name": "chr2:9570881:9570882:+_ENSG00000119203_ENST00000238112|hu_mus|hu_hu_hu_mus_False|8_108 (ssRNA)", "RNA": "GGGAGUUCUACAGUCCGACGAUCACUUGUCUUCUGUAGGAACCAGGGCAGGGCUCCACAGUGAUCCAAAUGGAAAUGACUGAUCAACAGAAGGUCGAUCUCAGCUGGGUCGAUAAGGUCAAUGUAAGGAAGAGCAUCCAUUCCCAACAGAGGAUUGAGCAUCA"}},
  "note": "The other results are listed elsewhere or left out.",
  "data": [
    {"target": "T1, UNK ZnF1-3 (human, UniProt Q9C0B0 31-174)", "T1 sequence": "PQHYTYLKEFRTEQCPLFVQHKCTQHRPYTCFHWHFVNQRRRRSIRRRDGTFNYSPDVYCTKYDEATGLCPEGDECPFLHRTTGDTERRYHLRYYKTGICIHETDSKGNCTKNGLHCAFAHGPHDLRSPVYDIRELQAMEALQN", "assay": "nsRBNS (natural sequence RNA bind-n-seq); RBNS binding buffer (assumed for nsRBNS): 25 mM Tris pH 7.5, 150 mM KCl, 3 mM MgCl2, 0.01% Triton X-100, 500 ug/ml BSA, 20 U/ml SUPERase-In, 4 C; UNK is unkempt and MSI1 is Musashi-1; names of the RNAs are library labels; protein concentration not given here; high values mean tight binding", "units": {"binding signal": "enrichment R"}, "values": [
      {"binder": "B1", "binding signal": 1.38},
      {"binder": "B2", "binding signal": 1.74},
      {"binder": "B3", "binding signal": 0.784},
      {"binder": "B4", "binding signal": 0.485},
      {"binder": "B5", "binding signal": 1.02},
      {"binder": "B6", "binding signal": 1.1},
      {"binder": "B7", "binding signal": 0.834},
      {"binder": "B8", "binding signal": 1.17},
      {"binder": "B9", "binding signal": 1.05},
      {"binder": "B10", "binding signal": 0.427},
      {"binder": "B11", "binding signal": 1.43},
      {"binder": "B12", "binding signal": 0.561},
      {"binder": "B13", "binding signal": 0.201},
      {"binder": "B14", "binding signal": 1.65}
    ]}
  ]
}
